What was measured:
[1] = target: T1, rat SERT (rSERT; serotonin transporter) (Rattus norvegicus, UniProt P31652); experiment: biochemical; parameters: species or system HeLa
[2] = target: T1, rat SERT (rSERT; serotonin transporter); experiment: biochemical; parameters: species or system HeLa; remark: listed apart in the source
[3] = target: T1, rat SERT (rSERT; serotonin transporter); experiment: […]β-CIT filtration binding, HeLa membranes

Chain of UniProt P31652 (P31652 whole entry): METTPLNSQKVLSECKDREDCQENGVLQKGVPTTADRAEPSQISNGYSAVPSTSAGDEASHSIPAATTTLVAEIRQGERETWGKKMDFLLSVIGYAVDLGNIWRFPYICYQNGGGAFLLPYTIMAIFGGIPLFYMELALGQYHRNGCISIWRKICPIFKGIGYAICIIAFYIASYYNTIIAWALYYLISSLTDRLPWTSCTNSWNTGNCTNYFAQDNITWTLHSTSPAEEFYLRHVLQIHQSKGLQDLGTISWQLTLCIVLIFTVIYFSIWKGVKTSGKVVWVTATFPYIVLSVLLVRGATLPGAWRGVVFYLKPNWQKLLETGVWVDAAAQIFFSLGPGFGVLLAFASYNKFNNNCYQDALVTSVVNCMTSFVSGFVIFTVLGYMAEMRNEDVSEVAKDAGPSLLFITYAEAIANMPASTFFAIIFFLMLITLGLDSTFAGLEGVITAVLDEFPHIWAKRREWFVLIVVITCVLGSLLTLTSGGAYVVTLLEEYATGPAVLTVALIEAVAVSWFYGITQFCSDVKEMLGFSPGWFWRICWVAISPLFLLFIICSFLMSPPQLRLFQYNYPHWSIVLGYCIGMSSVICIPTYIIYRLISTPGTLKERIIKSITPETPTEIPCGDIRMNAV

Row | SMILES | Kd [1] [nM] | Kd [2] [nM] | Kd [3] [nM]
1 | COC(=O)[C@H]1C(c2ccc(I)cc2)C[C@@H]2CC[C@H]1N2C (stereo partly drawn) [β-CIT] | 2.6 ± 0.4 | 2.5 ± 0.8 | –
2 | COC(=O)[C@H]1[C@@H](c2ccc(I)cc2)C[C@@H]2CC[C@H]1N2C [β-CIT, (–)-2β-carbomethoxy-3β-(4-iodophenyl) tropane] | – | – | 0.6 ± 0.2
